{"source": "the supplement of paper PMC8728848", "binders": {"B1": {"name": "Als1 (Candida albicans), P46590 (protein)", "chain": "KTITGVFDSFNSLTWSNAANYAFKGPGYPTWNAVLGWSLDGTSANPGDTFTLNMPCVFKYTTSQTSVDLTADGVKYATCQFYSGEEFTTFSTLTCTVNDALKSSIKAFGTVTLPIAFNVGGTGSSTDLEDSKCFTAGTNTVTFNDGDKDISIDVEFEKSTVDPSGYLYASRVMPSLNKVTTLFVAPQCENGYTSGTMGFSSSNGDVAIDCSNIHIGITKGLNDWNYPVSSESFSYTKTCTSNGIQIKYQNVPAGYRPFIDAYISATDVNQYTLAYTNDYTCAGSRLQSKPFTLRWTGYKNSDAGSNGIVIVATTRTVTDSTTAVTTLPFNPSVDKTKTIEILQPIPTTTITTSYVGVTTSYLTKTAPIGETATVIVDVPYHTTTTVTSEWTGTITTTTTRTNPTDSIDTVVVQVP"}}, "experiment_in_all_cases": "glycan array binding signal (z-score within array); higher = stronger binding", "conditions_in_all_cases": "glycan notation: IUPAC condensed, linker removed", "key": {"[1]": {"molecular_target": "Fuc(a1-2)[Gal(a1-3)]Gal(b1-4)GlcNAc(b1-2)Man(a1-3)[Fuc(a1-2)[Gal(a1-3)]Gal(b1-4)GlcNAc(b1-2)Man(a1-6)]Man(b1-4)GlcNAc(b1-4)GlcNAc", "method_in_brief": "(§1)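 Columns mapping to the same glycan were averaged after glycan names were converted to IUPAC-condensed notation. The data come from 3228 arrays in the Consortium for Functional Glycomics database, limited to those with an available protein sequence. Binding is reported as a within-array Z-score averaged across arrays of one protein sequence and across linkers.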"}, "[2]": {"molecular_target": "Fuc(a1-2)[Gal(a1-3)]Gal(b1-4)GlcNAc(b1-2)Man(a1-3)[Fuc(a1-2)[Gal(a1-3)]Gal(b1-4)GlcNAc(b1-2)Man(a1-6)]Man(b1-4)GlcNAc(b1-4)[Fuc(a1-6)]GlcNAc", "method_in_brief": "as §1"}, "[3]": {"molecular_target": "Fuc(a1-2)[Gal(a1-3)]Gal(b1-4)GlcNAc(b1-3)GalNAc", "method_in_brief": "as §1"}, "[4]": {"molecular_target": "Fuc(a1-2)[Gal(a1-3)]Gal(b1-4)GlcNAc(b1-3)[Fuc(a1-2)[Gal(a1-3)]Gal(b1-4)GlcNAc(b1-6)]GalNAc", "method_in_brief": "as §1"}, "[5]": {"molecular_target": "Fuc(a1-2)[Gal(a1-3)]Gal(b1-4)GlcNAc(b1-6)GalNAc", "method_in_brief": "as §1"}, "[6]": {"molecular_target": "Fuc(a1-2)[Gal(a1-3)]Gal(b1-4)[Fuc(a1-3)]Glc", "method_in_brief": "as §1"}, "[7]": {"molecular_target": "Fuc(a1-2)[Gal(a1-3)]Gal(b1-4)[Fuc(a1-3)]GlcNAc", "method_in_brief": "as §1"}, "[8]": {"molecular_target": "Fuc(a1-2)[Gal(a1-3)]Gal(b1-4)[Fuc(a1-3)]GlcNAc(b1-3)GalNAc", "method_in_brief": "as §1"}, "[9]": {"molecular_target": "Fuc(a1-2)[Gal(a1-4)]Gal(b1-4)GlcNAc", "method_in_brief": "as §1"}, "[10]": {"molecular_target": "Fuc(a1-2)[GalNAc(a1-3)]Gal", "method_in_brief": "as §1"}, "[11]": {"molecular_target": "Fuc(a1-2)[GalNAc(a1-3)]Gal(b1-3)GalNAc(a1-3)[Fuc(a1-2)]Gal(b1-4)GlcNAc", "method_in_brief": "as §1"}, "[12]": {"molecular_target": "Fuc(a1-2)[GalNAc(a1-3)]Gal(b1-3)GalNAc(b1-3)Gal(a1-4)Gal(b1-4)Glc", "method_in_brief": "as §1"}, "[13]": {"molecular_target": "Fuc(a1-2)[GalNAc(a1-3)]Gal(b1-3)GlcNAc", "method_in_brief": "as §1"}, "[14]": {"molecular_target": "Fuc(a1-2)[GalNAc(a1-3)]Gal(b1-3)GlcNAc(b1-2)Man(a1-3)[Fuc(a1-2)[GalNAc(a1-3)]Gal(b1-3)GlcNAc(b1-2)Man(a1-6)]Man(b1-4)GlcNAc(b1-4)GlcNAc", "method_in_brief": "as §1"}, "[15]": {"molecular_target": "Fuc(a1-2)[GalNAc(a1-3)]Gal(b1-3)GlcNAc(b1-2)Man(a1-3)[Fuc(a1-2)[GalNAc(a1-3)]Gal(b1-3)GlcNAc(b1-2)Man(a1-6)]Man(b1-4)GlcNAc(b1-4)[Fuc(a1-6)]GlcNAc", "method_in_brief": "as §1"}, "[16]": {"molecular_target": "Fuc(a1-2)[GalNAc(a1-3)]Gal(b1-3)GlcNAc(b1-3)GalNAc", "method_in_brief": "as §1"}, "[17]": {"molecular_target": "Fuc(a1-2)[GalNAc(a1-3)]Gal(b1-3)GlcNAc(b1-6)GalNAc", "method_in_brief": "as §1"}, "[18]": {"molecular_target": "Fuc(a1-2)[GalNAc(a1-3)]Gal(b1-4)Glc", "method_in_brief": "as §1"}, "[19]": {"molecular_target": "Fuc(a1-2)[GalNAc(a1-3)]Gal(b1-4)GlcNAc", "method_in_brief": "as §1"}, "[20]": {"molecular_target": "Fuc(a1-2)[GalNAc(a1-3)]Gal(b1-4)GlcNAc(b1-2)Man", "method_in_brief": "as §1"}, "[21]": {"molecular_target": "Fuc(a1-2)[GalNAc(a1-3)]Gal(b1-4)GlcNAc(b1-2)Man(a1-3)[Fuc(a1-2)[GalNAc(a1-3)]Gal(b1-4)GlcNAc(b1-2)Man(a1-6)]Man(b1-4)GlcNAc(b1-4)GlcNAc", "method_in_brief": "as §1"}, "[22]": {"molecular_target": "Fuc(a1-2)[GalNAc(a1-3)]Gal(b1-4)GlcNAc(b1-2)Man(a1-3)[Fuc(a1-2)[GalNAc(a1-3)]Gal(b1-4)GlcNAc(b1-2)Man(a1-6)]Man(b1-4)GlcNAc(b1-4)[Fuc(a1-6)]GlcNAc", "method_in_brief": "as §1"}, "[23]": {"molecular_target": "Fuc(a1-2)[GalNAc(a1-3)]Gal(b1-4)GlcNAc(b1-3)Gal(b1-4)GlcNAc", "method_in_brief": "as §1"}, "[24]": {"molecular_target": "Fuc(a1-2)[GalNAc(a1-3)]Gal(b1-4)GlcNAc(b1-3)Gal(b1-4)GlcNAc(b1-3)Gal(b1-4)GlcNAc", "method_in_brief": "as §1"}, "[25]": {"molecular_target": "Fuc(a1-2)[GalNAc(a1-3)]Gal(b1-4)GlcNAc(b1-3)GalNAc", "method_in_brief": "as §1"}, "[26]": {"molecular_target": "Fuc(a1-2)[GalNAc(a1-3)]Gal(b1-4)GlcNAc(b1-3)[Fuc(a1-2)[GalNAc(a1-3)]Gal(b1-4)GlcNAc(b1-6)]GalNAc", "method_in_brief": "as §1"}, "[27]": {"molecular_target": "Fuc(a1-2)[GalNAc(a1-3)]Gal(b1-4)GlcNAc(b1-6)GalNAc", "method_in_brief": "as §1"}, "[28]": {"molecular_target": "Fuc(a1-2)[GalNAc(a1-3)]Gal(b1-4)[Fuc(a1-3)]GlcNAc", "method_in_brief": "as §1"}, "[29]": {"molecular_target": "Fuc(a1-2)[GalNAc(a1-3)]Gal(b1-4)[Fuc(a1-3)]GlcNAc(b1-3)GalNAc", "method_in_brief": "as §1"}, "[30]": {"molecular_target": "Fuc(a1-2)[GalNAc(a1-4)]Gal(b1-4)GlcNAc", "method_in_brief": "as §1"}, "[31]": {"molecular_target": "Fuc(a1-2)[GalNAc(b1-3)]Gal", "method_in_brief": "as §1"}, "Fuc(a1-3)GlcNAc": {"molecular_target": "Fuc(a1-3)GlcNAc", "method_in_brief": "as §1"}, "[32]": {"molecular_target": "Fuc(a1-3)[Gal(b1-4)]Glc6S", "method_in_brief": "as §1"}, "[33]": {"molecular_target": "Fuc(a1-3)[Gal(b1-4)]GlcNAc", "method_in_brief": "as §1"}, "[34]": {"molecular_target": "Fuc(a1-3)[Gal(b1-4)]GlcNAc(b1-2)Man", "method_in_brief": "as §1"}, "[35]": {"molecular_target": "Fuc(a1-3)[Gal(b1-4)]GlcNAc(b1-2)Man(a1-3)[Fuc(a1-3)[Gal(b1-4)]GlcNAc(b1-2)Man(a1-6)]Man(b1-4)GlcNAc(b1-4)GlcNAc", "method_in_brief": "as §1"}, "[36]": {"molecular_target": "Fuc(a1-3)[Gal(b1-4)]GlcNAc(b1-2)Man(a1-3)[Fuc(a1-3)[Gal(b1-4)]GlcNAc(b1-2)Man(a1-6)]Man(b1-4)GlcNAc(b1-4)[Fuc(a1-6)]GlcNAc", "method_in_brief": "as §1"}}, "note": "Some of the results follow."}
{"binder": "B1", "values": [{"measurement": "glycan array binding signal (z-score)", "setting": "[1]", "value": -0.668}, {"measurement": "glycan array binding signal (z-score)", "setting": "[2]", "value": -0.749}, {"measurement": "glycan array binding signal (z-score)", "setting": "[3]", "value": -0.678}, {"measurement": "glycan array binding signal (z-score)", "setting": "[4]", "value": -0.556}, {"measurement": "glycan array binding signal (z-score)", "setting": "[5]", "value": 1.62}, {"measurement": "glycan array binding signal (z-score)", "setting": "[6]", "value": 0.021}, {"measurement": "glycan array binding signal (z-score)", "setting": "[7]", "value": 0.286}, {"measurement": "glycan array binding signal (z-score)", "setting": "[8]", "value": 0.685}, {"measurement": "glycan array binding signal (z-score)", "setting": "[9]", "value": -0.577}, {"measurement": "glycan array binding signal (z-score)", "setting": "[10]", "value": -0.777}, {"measurement": "glycan array binding signal (z-score)", "setting": "[11]", "value": -0.496}, {"measurement": "glycan array binding signal (z-score)", "setting": "[12]", "value": -0.643}, {"measurement": "glycan array binding signal (z-score)", "setting": "[13]", "value": -0.204}, {"measurement": "glycan array binding signal (z-score)", "setting": "[14]", "value": -0.646}, {"measurement": "glycan array binding signal (z-score)", "setting": "[15]", "value": -0.413}, {"measurement": "glycan array binding signal (z-score)", "setting": "[16]", "value": 0.39}, {"measurement": "glycan array binding signal (z-score)", "setting": "[17]", "value": -0.055}, {"measurement": "glycan array binding signal (z-score)", "setting": "[18]", "value": -0.307}, {"measurement": "glycan array binding signal (z-score)", "setting": "[19]", "value": -0.357}, {"measurement": "glycan array binding signal (z-score)", "setting": "[20]", "value": -0.488}, {"measurement": "glycan array binding signal (z-score)", "setting": "[21]", "value": -0.448}, {"measurement": "glycan array binding signal (z-score)", "setting": "[22]", "value": -0.337}, {"measurement": "glycan array binding signal (z-score)", "setting": "[23]", "value": -0.31}, {"measurement": "glycan array binding signal (z-score)", "setting": "[24]", "value": 0.246}, {"measurement": "glycan array binding signal (z-score)", "setting": "[25]", "value": -0.403}, {"measurement": "glycan array binding signal (z-score)", "setting": "[26]", "value": -0.61}, {"measurement": "glycan array binding signal (z-score)", "setting": "[27]", "value": -0.172}, {"measurement": "glycan array binding signal (z-score)", "setting": "[28]", "value": 1.25}, {"measurement": "glycan array binding signal (z-score)", "setting": "[29]", "value": 2.38}, {"measurement": "glycan array binding signal (z-score)", "setting": "[30]", "value": -0.813}, {"measurement": "glycan array binding signal (z-score)", "setting": "[31]", "value": -0.535}, {"measurement": "glycan array binding signal (z-score)", "setting": "Fuc(a1-3)GlcNAc", "value": -0.139}, {"measurement": "glycan array binding signal (z-score)", "setting": "[32]", "value": 3.38}, {"measurement": "glycan array binding signal (z-score)", "setting": "[33]", "value": -0.443}, {"measurement": "glycan array binding signal (z-score)", "setting": "[34]", "value": 0.019}, {"measurement": "glycan array binding signal (z-score)", "setting": "[35]", "value": 0.227}, {"measurement": "glycan array binding signal (z-score)", "setting": "[36]", "value": 0.146}]}
